Data reported in ChEMBL document CHEMBL1157539, “Thousands of chemical starting points for antimalarial lead identification” (Nature, 2010).
The full ranking holds about 13,000 compounds; the median of “IFI” is about 4, and the highest 2% start at about 17. This is one part of the list.

assay: GSK_TCMDC: Inhibition Frequency Index (IFI). The number of non-kinase HTS assays where a compound showed > 50 % inhibition, expressed as a percentage of the number of such assays in which the compound was tested (-0 is zero); assay type: functional

Row | SMILES | IFI
1 | COc1ccc(CNCCCCCCCNCc2ccc(Cl)c(Cl)c2)cc1Cl | 4.32%
2 | COc1ccc(NC(=O)c2ccc(-c3nc(-c4ccccc4)cs3)cc2)cc1N1CCN(C)CC1 | 6.85%
3 | Cc1cccn2c(=O)c3cc(C(=O)NC(C)c4ccccc4)c(=N)n(CCN4CCOCC4)c3nc12 (stereo not given) | 2.86%
4 | Cn1cnc(CCNC(=O)c2cccc(-c3cccc(-c4nc5cc(C(F)(F)F)ccc5[nH]4)c3)c2)c1 | 5.66%
5 | COc1ccc2nc3cc(Cl)ccc3c(NCCCCCCNc3c4ccc(Cl)cc4nc4ccc(OC)cc34)c2c1 | 3.65%
6 | Oc1ccc(-c2ccccc2)cc1CN1CCCCCC1 | 0.84%
7 | Cc1nnsc1C(=O)Nc1ccc(-c2ccc(-c3nc4ccccc4[nH]3)s2)cc1 | 6.19%
8 | CN(C)CCOc1cc(NC(=O)Nc2ccc(-c3ccncc3)c(C(F)(F)F)c2)ccc1Cl | 4.44%
9 | N#CCCn1nc(-c2ccc(Cl)cc2)c2c(c1=O)CCCC2 | -0%
10 | CC(=O)c1ccc(-c2cccc3c(CC(=O)Nc4ccc5nccc(N6CCN(C)CC6)c5c4)cccc23)cc1 | 7.14%
11 | O=[N+]([O-])c1ccc(/C=N/O)nc1 | 23.4%
12 | CCN(Cc1ccccc1)C1CCN(Cc2cc(Br)ccc2O)CC1 | 2.14%
13 | C=CCOc1ccccc1CNCC(O)c1cc(Br)cs1 (stereo not given) | 1.64%
14 | N#Cc1cccc(CN2CCCN(Cc3cccc(C(=O)Nc4ccc(Cl)cc4)c3)CC2)c1 | 5%
15 | Oc1ccc(CCNCCCCCCNCCc2ccc(Cl)cc2)c(Cl)c1O | 8.73%
16 | CN(C)CCCN(C)C(=O)c1cc2cc(-c3ccccc3)ccc2n1S(=O)(=O)c1ccccc1 | 6.94%
17 | Cc1nc(C)c(-c2ccc(C(=O)c3ccc(Cl)cc3)cc2)c(O)c1Br | 4.41%
18 | CCC(C)(C)c1ccc(S(=O)(=O)Nc2ccc(Cl)c(OCCN3CCCCC3)c2)cc1 | 43.1%
19 | COc1cc(OC)c2c(C)cc(NCCCn3ccnc3)nc2c1 | 1.47%
20 | O=C(/C=C/c1ccc(Cl)c(Cl)c1)NCCCCCN1CCC(c2c[nH]c3ccccc23)CC1 | 5.96%
21 | COc1ccc2nccc(N/N=C/c3cccc([N+](=O)[O-])c3)c2c1 | 2.9%
22 | CCCN(CCC)C(=O)c1cc(C(=O)N[C@@H](Cc2ccccc2)[C@H](O)CNCc2cccc(OC)c2)cc(N2CCCCS2(=O)=O)c1 | 1.47%
23 | Cc1[nH]c2ccccc2c(=O)c1Br | -0%

Row | SMILES | IFI
24 | CC(C)Cc1ccc(N2CCN(CCCCNC(=O)c3ccc(NC(=O)c4ccc(Cl)c(Cl)c4)cc3)CC2)cc1 | -0%
25 | Cc1nc2ccccc2n1C1CC2CCC(C1)N2CCCC1(c2ccccc2)CCN(C(=O)OCc2ccccc2)CC1 (stereo not given) | 12.8%
26 | CCOC(=O)CCCOc1cc(Cc2cnc(N)nc2N)cc(OC)c1OC | 1.46%
27 | COc1cc2cc(-c3nc4ccccc4[nH]3)c(N)nc2cc1OC | 10.3%
28 | CN(Cc1cc(C(F)(F)F)cc(C(F)(F)F)c1)C(=O)C1CNCC1c1ccc(F)cc1 (stereo not given) | 2.5%
29 | CC(C)(CNCc1cc(Cl)cc(Cl)c1)c1nc(-c2ccnc(N)n2)c(-c2ccc(Cl)c(O)c2)[nH]1 | 10.6%
30 | Cc1ccc2c(c1)NCC21CCN(C[C@@H](O)C2CCN(c3ccnc(Cl)c3)CC2)CC1C (stereo not given in full) | 0%
31 | CCCN(CCC)CCCN(CCCN(CCC)CCC)c1cc(C)nc(Nc2ccc3cc(Br)ccc3c2)n1 | 12.8%
32 | COc1cc(OC)c(OC)cc1CN1CCC2(CC1)CN(Cc1ccc(Cl)c(Cl)c1)C(=O)O2 | 4.11%
33 | COc1ccc2nccc([C@@H](O)CN3CCC(NCc4cc5ccc(Cl)cc5[nH]4)CC3)c2c1 | 6.47%
34 | CC(C)(Oc1c(C2CCN(CCCCNC(=O)c3ccc(-c4ccc(Cl)cc4)cc3)CC2)ccc2c1CCCC2)C(N)=O | 11.4%
35 | Cc1cc(NC(=O)[C@H](CC2CCCCC2)Nc2ccc(C#N)c3ccccc23)ccc1F | 7.55%
36 | Cc1ccc2[nH]c(-c3ccccc3Nc3ccnc4cc(-c5nccs5)ccc34)nc2c1 | 7.14%
37 | Cc1ccc(Cn2ncc(N3CC(C)NC(C)C3)c(Cl)c2=O)cc1NC(=O)Nc1ccc(-c2ccccc2)cc1 (stereo not given) | 4.17%
38 | COc1ccc(S(=O)(=O)NC2CCN(c3cc(C)nc(Nc4cccc(C#N)c4)n3)CC2)cc1 | 4%
39 | O=C(/C=C/c1ccc(Cl)c(Cl)c1)N1CCN(C(=O)Nc2cccc(C(F)(F)F)c2)CC1 | 24.2%
40 | CCN(CC)S(=O)(=O)n1ncc2c3c(N)nc(N)nc3ccc21 | 1.38%
41 | CCCCOC(=O)C1=C(C)NC2=C(C(=O)CC(c3ccc(OC)c(OC)c3)C2)C1c1ccc(O)cc1 (stereo not given) | 2.78%
42 | O=C(/C=C/c1ccc(Cl)cc1)NCCCCCN1CCC(C(=O)Nc2cccc(Cl)c2)CC1 | 9.52%
43 | O=C(/C=C/c1ccc(Cl)c(Cl)c1)N1CCN(C(=O)Nc2ccc(C(F)(F)F)cc2)CC1 | 22.1%
44 | N#Cc1nc2ccc(OCCN(Cc3ccccc3C(F)(F)F)c3ccc(C#N)c(C(F)(F)F)c3)cc2s1 | 3.13%
45 | COCc1ccccc1C(=O)NCCOc1cc(C)cc(C)c1 | -0%
46 | O=C(NCc1cccc(C(F)(F)F)c1)c1ccc(-c2nc3cc(F)c(F)cc3[nH]2)cc1 | 0.72%

Row | SMILES | IFI
47 | CS(=O)(=O)N(c1cccc(F)c1)c1cc(C(=O)N[C@@H](Cc2ccccc2)[C@H](O)CNCc2cccc(C(F)(F)F)c2)cc(N2CCCC2=O)c1 | 5.93%
48 | Cc1cccc2nc(-c3ccc(-c4cccc(NC(=O)CN5CCN(C)CC5)c4)s3)[nH]c12 | 6.31%
49 | Cc1ccc(C)c(Cn2ccc3nc(N)nc(N)c32)c1 | 3.65%
50 | CCc1cccc(-c2cc(N)n(C)c3nc(N)nc(=O)c2-3)c1 | -0%
51 | CCCNS(=O)(=O)c1ccc(NC(=O)C(C)Oc2ccc([N+](=O)[O-])cc2)cc1 (stereo not given) | 17.5%
52 | CC(C)C[C@@H](/C=N/N1CC(=O)NC1=O)NC(=O)[C@H](CC(C)C)NC(=O)c1ccc(OCCN2CCOCC2)cc1 | 5.45%
53 | CC1(C)NC(N)=NC(=N)N1OCc1ccc(-c2ccccc2)cc1 | 7.86%
54 | COC(=O)c1ccc(-c2ccc(-c3cccnc3)cc2C)cc1 | 21.7%
55 | c1ccc(CN2CCC(NCc3ccccc3-c3ccc(CNCc4ccc5c(c4)OCO5)cc3)CC2)cc1 | 10.9%
56 | COc1ccc(-n2c(=O)c3c(n4c(SC(C)C)nnc24)-c2ccccc2CC32CCCCC2)cc1 | 0.83%
57 | CN(C)Cc1cccc(-c2ccc(NC(=O)c3ccc4c(=O)n(CC5CCCO5)cnc4c3)cc2)c1 (stereo not given) | 2%
58 | Cc1cc(N[C@@H](Cc2ccccc2)C(=O)NCc2cccs2)nc(Nc2ccccc2)n1 | 2.33%
59 | CCN(CC)CC(O)Cc1c2ccc([N+](=O)[O-])cc2nc2cc(OC)c(OC)cc12 (stereo not given) | 2.82%
60 | NC(=O)c1cccc(-n2ccc3cc(CNC4Cc5ccccc5C4)ccc32)c1 | 3.85%
61 | N#Cc1cc(N(CCCOc2cccc(OC(F)(F)F)c2)Cc2ccccc2C(F)(F)F)ccc1C(F)(F)F | 0%
62 | COc1ccc(Nc2ncc(C#N)c(Nc3ccccc3C(N)=O)n2)cc1N1CCN(C)CC1 | 11.5%
63 | CN1CCCN(c2ccnc3cc4c(cc23)N(C(=O)c2ccc(Cl)cc2)CC4)CC1 | 0.73%
64 | NC(=O)c1cnc2cc(-c3ccncc3)cc(Nc3ccc(NC(=O)C4CCCCC4)cc3)c2c1 | 2.16%
65 | COc1cc(Cc2cnc(NCCN3CCNCC3)nc2N)ccc1OCc1ccc(C(F)(F)F)cc1 | 6%
66 | NCc1ccc(CNCc2cccc(-c3cccc(-c4nc5ccccc5[nH]4)c3)c2)cc1 | 7%
67 | CS(=O)(=O)c1ccc(CNCc2cccc(-c3cccc(-c4nc5ccccc5[nH]4)c3)c2)cc1 | 2.88%
68 | CC(C)(CNC(=O)[C@H]1CCCN1)c1nc(-c2ccc(Cl)c(O)c2)c(-c2ccncc2)[nH]1 | 0.79%
69 | CN(CCN)Cc1ccc(-c2ccc(-c3nc4cc(C(F)(F)F)ccc4[nH]3)s2)cc1 | 11.9%

Row | SMILES | IFI
70 | O=C(Nc1ccc(-c2ccc(-c3nc4ccccc4[nH]3)cc2)cc1)Nc1ccc(Cl)c(Cl)c1 | 3.96%
71 | CC(=O)Nc1ccc(C#Cc2ccc(-c3c(C)[nH]c(C)c(Cl)c3=O)cc2)cc1 | 0.88%
72 | CCCC(C)NC(=O)c1cnn(-c2ccc(C(C)(C)C)cc2)c1OCc1ccc(Br)cc1 (stereo not given) | 2.86%
73 | O=C(NCC1CCN(CC2CCCCC2)C1)c1cc(-c2cccc(Cl)c2)cs1 (stereo not given) | 8%
74 | CS(=O)(=O)c1ccc(-c2cncc(Nc3cccc([N+](=O)[O-])c3)c2)cc1 | 3.05%
75 | COc1ccc(Nc2nccc(N3CCC(NC(=O)c4cccc(NC(C)=O)c4)C3)n2)cc1 (stereo not given) | 3.08%
76 | CCc1c(CCNCCCCCCNCCc2ccc(OC)c(OC)c2C)ccc(OC)c1OC | 3.6%
77 | CN1CCN(CCCCCCNc2c3ccccc3nc3ccccc23)CC1 | 3.52%
78 | Nc1nccc2ccc(-c3cccnc3)cc12 | 4.85%
79 | CNCCNCc1ccc(-c2ccc(-c3nc4cc(C(F)(F)F)ccc4[nH]3)s2)cc1 | 8.82%
80 | CCc1ccc(Cc2cnc3nc(N)nc(N)c3c2C)cc1CC | 1.64%
81 | COc1ccccc1Cc1nc2ccccc2nc1SCC(=O)Nc1cccc(C(F)(F)F)c1 | 2.17%
82 | CCOc1ccc2c(=NN=Cc3c4ccccc4cc4ccccc34)cc(C)[nH]c2c1 | 1.46%
83 | Oc1cccc2c1CC(NCc1ccccc1)CC2 (stereo not given) | -0%
84 | CCCN(CCC)CCOc1ccc(C(O)(C#CC(O)(c2ccc(OCCN(CCC)CCC)cc2)c2cccc(Cl)c2)c2cccc(Cl)c2)cc1 (stereo not given) | 8.15%
85 | CCCCCCCOc1ccc(NC(=O)Nc2ccc(Cn3ncc(N4CCCNCC4)c(Cl)c3=O)cc2)cc1 | 19.1%
86 | O=C(Nc1cccc(C(F)(F)F)c1)NC1CCN(c2ccnc3ccccc23)C1 (stereo not given) | 1.56%
87 | CC(C)(C)CCOC(=O)N1CCc2c(cc(O)c(O)c2Cl)C(c2ccc(O)cc2)C1 (stereo not given) | 4.17%
88 | CN(C)CCOc1ccc(-c2cc(-c3ccc(Cl)c(O)c3)c(-c3ccnc(N)n3)o2)cc1 | 6.04%
89 | CC(C)[C@H](NC(=O)c1ccc(O)c(-c2ccc(Cl)c(Cl)c2)c1)C(=O)NCCN1CCOCC1 | -0%
90 | COc1ccc2nccc([C@@H](O)CN3CCC(NC(=O)/C=C/c4cc(F)cc(Br)c4)CC3)c2c1 | 3.65%
